# According to PubChem BioAssay AID1347165 (National Center for Advancing Translational Sciences (NCATS), 2019):
# “And” between values parts separate entries of the source, which are not always exact repeats. Equal entries are not always repeated. The whole screen tested about 220,000 compounds, of which about 5,700 (2.6%) were called active. Inconclusive results, whose numbers are uncertain, are shown with a selection of clear calls. Calls come from the whole dose curve; as a rule, active = well fitted inhibition curve with a large enough effect; inconclusive = small, poorly fitted or top-dose-only effect; inactive = no such curve, though single readings can be large or run the other way. Where the call is inconclusive, the potency comes from a doubtful curve fit.
# Target: Lysine-specific demethylase 5B (Homo sapiens) (UniProt Q9UGL1)
# Experiment: Primary screen for KDM5B Histone Demethylases FDH-coupled qHTS; note: nearly all actives have a fitted effect of over 70% in size
# Details: FDH-coupled NADH fluorescence (FDH is formaldehyde dehydrogenase); series mostly up to 57.7 µM
# Method in brief: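 qHTS format, multiple compound concentrations. Buffer 50 mM HEPES pH 7.5/0.01% Tween-20; 200 nM KDM5BΔAP final; 10 min compound preincubation; substrate-mix levels 12.5 µM peptide, 25 µM α-KG, 0.25 mM NAD⁺; 30 min RT; ΔRFU.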
# Potency is the fitted concentration of half-maximal effect; tags give direction and shape of the fitted curve.
# Chain of UniProt Q9UGL1 (Q9UGL1 whole entry, looked up): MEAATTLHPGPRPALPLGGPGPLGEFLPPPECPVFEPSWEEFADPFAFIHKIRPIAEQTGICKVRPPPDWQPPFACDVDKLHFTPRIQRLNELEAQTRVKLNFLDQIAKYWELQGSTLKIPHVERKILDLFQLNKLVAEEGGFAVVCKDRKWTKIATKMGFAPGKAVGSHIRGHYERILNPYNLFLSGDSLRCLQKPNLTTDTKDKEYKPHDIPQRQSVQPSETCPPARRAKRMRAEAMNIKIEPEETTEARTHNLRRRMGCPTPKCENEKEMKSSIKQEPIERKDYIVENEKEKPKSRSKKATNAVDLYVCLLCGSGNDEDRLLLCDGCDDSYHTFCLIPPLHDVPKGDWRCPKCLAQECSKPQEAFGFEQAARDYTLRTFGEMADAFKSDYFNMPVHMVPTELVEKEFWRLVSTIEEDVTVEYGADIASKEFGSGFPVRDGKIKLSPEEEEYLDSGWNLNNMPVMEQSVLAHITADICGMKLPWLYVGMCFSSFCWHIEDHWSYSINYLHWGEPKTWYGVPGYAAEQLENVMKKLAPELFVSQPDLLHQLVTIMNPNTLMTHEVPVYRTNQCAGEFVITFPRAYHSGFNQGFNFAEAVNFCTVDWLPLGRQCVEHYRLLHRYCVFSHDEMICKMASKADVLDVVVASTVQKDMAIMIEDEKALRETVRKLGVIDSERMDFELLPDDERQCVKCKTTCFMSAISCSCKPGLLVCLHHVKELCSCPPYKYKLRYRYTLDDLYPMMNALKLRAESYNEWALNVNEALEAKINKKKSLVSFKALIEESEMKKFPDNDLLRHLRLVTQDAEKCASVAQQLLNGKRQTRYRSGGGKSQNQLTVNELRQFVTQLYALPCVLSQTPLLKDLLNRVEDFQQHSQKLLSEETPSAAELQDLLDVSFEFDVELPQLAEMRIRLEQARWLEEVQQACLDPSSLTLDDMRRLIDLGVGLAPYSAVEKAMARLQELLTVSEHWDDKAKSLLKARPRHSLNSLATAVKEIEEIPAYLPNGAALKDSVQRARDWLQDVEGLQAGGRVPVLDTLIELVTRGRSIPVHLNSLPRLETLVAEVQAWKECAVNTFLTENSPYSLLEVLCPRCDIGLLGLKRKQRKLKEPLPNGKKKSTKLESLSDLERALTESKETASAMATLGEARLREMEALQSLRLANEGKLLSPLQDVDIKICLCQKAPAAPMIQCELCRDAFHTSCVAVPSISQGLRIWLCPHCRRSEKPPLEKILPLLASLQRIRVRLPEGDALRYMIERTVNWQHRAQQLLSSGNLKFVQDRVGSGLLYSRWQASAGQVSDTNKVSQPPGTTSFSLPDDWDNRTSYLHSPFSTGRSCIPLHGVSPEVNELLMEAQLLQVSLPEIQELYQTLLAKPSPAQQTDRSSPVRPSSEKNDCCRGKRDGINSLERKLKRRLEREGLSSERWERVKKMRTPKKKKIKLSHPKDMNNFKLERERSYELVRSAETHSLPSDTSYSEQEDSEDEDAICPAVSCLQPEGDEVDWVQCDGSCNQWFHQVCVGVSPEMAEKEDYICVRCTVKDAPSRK
row,Compound,Potency
1,O=C(c1ccco1)N1CCCC(Cc2nc(C3CCOCC3)no2)C1 (centres undefined),"inconclusive: 7.94 µM [inhibitor, partial curve, poor fit]"
2,COc1ccccc1-n1nc(CC(N)=O)nc1Cn1cnc2ccccc21,"inconclusive: 20 µM [inhibitor, partial curve, poor fit]"
3,O=c1c2ccccc2nc(/C=C/c2cc(Br)ccc2O)n1CCO,"inconclusive: 39.8 µM [inhibitor, single point]"
4,CC(=O)N1CCC2(CC1)CN(C(=O)c1c[nH]c3ccccc13)Cc1ccccc1O2,inactive
5,Cc1cc(C)n(CC(=O)N2CCC(N3C(=O)C4(CCCCC4)C3c3ccccc3)CC2)n1 (centres undefined),inactive
6,O=C(CSc1nnc2ccccn12)Nc1ccc(S(=O)(=O)N2CCCC2)cc1,inactive
7,CC1(CCCCc2ccccc2)COc2ccc(C(=O)NC3CC3)cc2N1 (centres undefined),active: 28.2 µM
8,Cc1csc(NC(=O)[C@@H]2C[C@H](c3ccc(F)cc3)N(Cc3ccccc3Cl)C2)n1,"inconclusive: 39.8 µM [inhibitor, partial curve, poor fit]"
9,Cc1ccccc1CC(=O)N1CCC(Oc2ncccc2C(=O)N2CCCCC2)C1 (centres undefined),"inconclusive: 25.1 µM [inhibitor, partial curve, poor fit]"
10,COC(=O)c1[nH]c2ccc(Cl)cc2c1NC(=O)C(C)N1CCC2(CC1)OCCO2 (centres undefined),"inconclusive: 35.5 µM [inhibitor, partial curve, poor fit]"
11,Fc1ccccc1N1CCN(c2ncc3c(n2)CCN(Cc2cc(Br)cs2)C3)CC1,"inconclusive: 28.2 µM [inhibitor, single point]"
12,CCS(=O)(=O)N1CCC(Oc2ncccc2C(=O)N(C)C)C1 (centres undefined),inactive
13,COc1ccc(C2(C(=O)NC3CCCc4c3[nH]c3ccccc43)CCOCC2)cc1 (centres undefined),"inconclusive: 14.1 µM [inhibitor, partial curve]"
14,COCCN1CCCCCC(O)c2cc(C(=O)N3CCN(CC(C)C)CC3)ccc21 (centres undefined),"inconclusive: 31.6 µM [inhibitor, partial curve, poor fit]"
15,CCN(CC)C(=O)c1cccc(NC(=O)c2cc(S(=O)(=O)NCc3ccccc3)ccc2C)c1,inactive
16,O=C(NC(=S)NNC(=O)c1cnccn1)c1ccc(Cl)cc1,"inconclusive: 10 µM [inhibitor, partial curve, poor fit]"
17,CCSc1nn(CC(=O)Nc2ccc(C(=O)OC)cc2)c(N)c1S(=O)(=O)c1ccc(C)cc1,inactive
18,Cc1[nH]c2ccccc2c1C(=O)CN1C(=O)CC2(CCCC2)C1=O,inactive
19,CSc1cccc(NC(=O)Cn2ncn3c(cc4ccccc43)c2=O)c1,"inconclusive: 25.1 µM [inhibitor, partial curve, poor fit]"
20,COc1ccc(CC(=O)Nc2cnc(-c3ccc(C)cc3)nc2)cc1,"inconclusive: 14.1 µM [inhibitor, partial curve]"
21,O=C(Nc1cccc(F)c1F)C1CCN(c2ncccn2)CC1,"inconclusive: 17.8 µM [inhibitor, partial curve, poor fit]"
22,COCC(=O)N[C@H]1C[C@@H](CO)N(Cc2cccc(C#N)c2)C1,inactive

row,Compound,Potency
1,Cc1ccc(N2CCN(S(=O)(=O)c3ccc4[nH]c5c(c4c3)CCCCC5)CC2)c(C)c1,"inconclusive: 11.2 µM [inhibitor, partial curve, poor fit]"
2,Cc1cc(CNC(=O)c2ccc(-c3ccccc3Cl)o2)n(C)n1,active: 20 µM
3,COc1cc(F)ccc1-c1ccc(=O)n(Cc2c(F)cccc2Cl)n1,"inconclusive: 28.2 µM [inhibitor, partial curve, poor fit]"
4,Cn1c(=O)c2sccc2n2c(CCCC(=O)NCc3ccccc3)nnc12,"inconclusive: 3.16 µM [inhibitor, full curve, poor fit]"
5,CCCC(=O)Nc1ccc(Cl)c(-c2nc3ccccc3o2)c1,inactive
6,CCCCS(=O)(=O)c1nc(-c2ccc(Br)cc2)cc(-c2ccccc2)c1C#N,"inconclusive: 17.8 µM [inhibitor, partial curve, poor fit]"
7,O=C(OCC(=O)N1c2ccccc2Sc2ccccc21)c1ccc2c(c1)OCCO2,inactive
8,O=S(=O)(NCC1Cn2cccc2CN1Cc1cccnc1)c1ccc(F)cc1 (centres undefined),active: 28.2 µM
9,Cc1nc2cc(C(=O)N3CCC4(CC3)c3nc[nH]c3CCN4C)ccc2s1,inactive
10,Cc1cc(NC(=O)C(C)(C)Oc2nn(CCOc3ccccc3)c3ccccc23)n(C)n1,"inconclusive: 56.2 µM [inhibitor, single point]"
11,COc1ccc(CNC(=O)c2cnc(N3CCOCC3)c3ccccc23)cc1,"inconclusive: 28.2 µM [inhibitor, partial curve, poor fit]"
12,COc1ccc(N=Nc2ccc(O)c3ncccc23)cc1,"inconclusive: 25.1 µM [inhibitor, single point]"
13,Cc1ccc(Cl)cc1N1CCN(C(=O)c2cc3c(-c4ccccc4F)nn(C)c3s2)CC1,"inconclusive: 17.8 µM [inhibitor, single point]"
14,COc1ccc(C(=O)Nc2oc3ccccc3c(=O)c2-c2ccc3c(c2)OCO3)cc1,inactive
15,Cc1nn(C)c(C)c1CCC(=O)N[C@@H]1CN(c2ncccn2)C[C@H]1CO,"inconclusive: 11.2 µM [inhibitor, partial curve, poor fit]"
16,CC(OC(=O)c1cccc(S(=O)(=O)N2CCOCC2)c1)C(=O)c1c[nH]c2ccccc12 (centres undefined),inactive
17,COc1ccc2[nH]c(C(=O)NCc3ccccc3)c(C)c2c1,"inconclusive: 14.1 µM [inhibitor, partial curve, poor fit] and inconclusive: 28.2 µM [inhibitor, partial curve, poor fit]"
18,COc1ccc(CN2CCCn3nc(C)c(-c4ccccc4Oc4ccccc4)c32)cc1O,"inconclusive: 12.6 µM [inhibitor, partial curve]"
19,Cc1ccc(S(C)(=O)=O)cc1C(=O)N1CCCC(c2nc3ccccc3[nH]2)C1 (centres undefined),inactive
20,CCOCC(=O)N1CCC2(CC1)NCCc1c2[nH]c2ccc(OC)cc12,active: 15.8 µM
21,O=C(O)COc1ccccc1/C=N/NC(=O)c1cc(-c2ccc(Cl)cc2)nc2ccccc12,"inconclusive: 28.2 µM [inhibitor, single point]"
22,COc1ccc(CC(=O)N/N=C/c2ccc(-c3cccc(C(=O)O)c3)o2)cc1OC,"inconclusive: 39.8 µM [inhibitor, single point]"

row,Compound,Potency
1,COc1ccccc1C1c2c(n[nH]c2C)Nc2[nH]c(=O)[nH]c(=O)c21 (centres undefined),"inconclusive: 39.8 µM [inhibitor, single point]"
2,O=C(NCCOc1ccccc1)C1CCCN(c2nc3ncccc3o2)C1 (centres undefined),"inconclusive: 14.1 µM [inhibitor, partial curve]"
3,CCCn1ccc2oc(C)c(C(=O)NCc3ccc(OC)cc3)c2c1=O,"inconclusive: 14.1 µM [inhibitor, partial curve]"
4,Cc1cccc(OC[C@H]2C[C@@H](NC(=O)c3ccccc3)[C@H](O)[C@@H]2O)n1,active: 35.5 µM
5,FC(F)(F)c1ccnc(N2CC[C@H](c3nnc(-c4ccncc4)o3)C2)n1,"inconclusive: 35.5 µM [inhibitor, partial curve, poor fit]"
6,CC(C)(Oc1ccc(Cl)cc1)C(=O)Oc1ccc(-c2ccc(C#N)cc2)cc1,"inconclusive: 28.2 µM [inhibitor, partial curve, poor fit]"
7,COc1ccc(CNCc2ccc(OC)c3ccccc23)cc1,"inconclusive: 20 µM [inhibitor, partial curve, poor fit]"
8,CC(C)=C1CC[C@H](C)[C@](C)(COc2ccc3ccc(=O)oc3c2)[C@H]1CCC(=O)O,"inconclusive: 22.4 µM [inhibitor, partial curve, poor fit]"
9,Cc1nn(CC(=O)N2CCN(c3cccc(C(F)(F)F)c3)CC2)c(=O)c2cccn12,"inconclusive: 1 µM [inhibitor, partial curve, poor fit]"
10,Oc1ccc(C2C[C@H]3CC[C@@H]2C3)cc1O (some centres undefined),"inconclusive: 39.8 µM [inhibitor, single point]"
11,Cc1nn(C)c2c1c(C(F)(F)F)cc(=O)n2C(C)C(=O)NCc1ccccc1Cl (centres undefined),"inconclusive: 1 µM [inhibitor, full curve, poor fit]"
12,COCC(=O)N1CCN(c2nc3ncccc3o2)CC1,active: 31.6 µM
13,CCCC(=O)N1N=C(c2ccc(OC)cc2)CC1c1ccc2nccnc2c1 (centres undefined),inactive
14,Cc1[nH]c2ccccc2c1C1c2ccccc2C(=O)N1CC(=O)N(C)C (centres undefined),inactive
15,O=C(O)Cn1ccc2cc(OCCc3cccc(-c4cccc(F)c4)c3)cnc21,active: 39.8 µM
16,COc1ccc(NC(=O)Cn2c(=O)n(Cc3ccc(C(=O)NCc4ccccc4Cl)cc3)c(=O)c3ccccc32)cc1,"inconclusive: 8.91 µM [inhibitor, partial curve, poor fit]"
17,O=C(c1ccccc1)c1ccc(OCC(O)CNCc2cccc(Cl)c2)cc1 (centres undefined),"inconclusive: 3.16 µM [inhibitor, full curve, poor fit]"
18,CC1CCN(Cc2nnnn2CC(=O)N(C)Cc2ccccn2)CC1,inactive
19,CCN1c2cc(C(=O)Nc3ccc(C(F)(F)F)cc3)ccc2C(=O)N2CCCC21 (centres undefined),"inconclusive: 15.8 µM [inhibitor, partial curve, poor fit]"
20,COc1ccc(-c2cccc(COc3ccc4c(cnn4CC[S+](C)(=O)[O-])c3)c2)cc1,"inconclusive: 56.2 µM [inhibitor, single point]"
